Values marked as one replicate rest on one cluster of the flow cell; about a third of the high ones do not repeat.
tested on: ATP; assay: switch fluorescence ratio, 500 uM ATP over buffer (Cy3 cluster intensity, sum of 5 cycles each) (fold (ratio)); higher = stronger signal-on switching upon ATP binding; sequences stand for … in TCGTCGGCAGCGTCAGATGTGTATAAGAGACAGTTTTTTTTTTTTTTTTTTTTTTTTT…TC; settings: aptamer strand: ATP DNA aptamer (quencher-CACCTGGGGGAGTATTGCGGAGGAAGG + anchor), 100 nM annealed; ATP concentration: 500 uM; one replicate
Outline: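 Clusters with intensities outside 100-1000 RFU were excluded. The remaining Cy3-labelled switching-strand clusters on a modified Illumina MiSeq flow-cell had been annealed to 100 nM quencher-labelled ATP aptamer and imaged in selection buffer, then after 15 min with 500 uM ATP at 22 °C, for five cycles separated by NaOH stripping and re-annealing. The fluorescence ratio, averaged per switch-domain sequence, is each cluster's summed target-cycle Cy3 intensity over its summed buffer-cycle Cy3 intensity.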
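Further: ATP exposure 15 min at 22 °C before imaging.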

Sequence	switch fluorescence ratio
TCGGGGACAG	0.989
TCGGGGCACA	1.93
TCGGGGCCAC	1.13
TCGGGGCCCA	1.03
TCGGGTATCC	1.09
TCGGGTGCGT	0.983
TCGGGTGTTC	1.06
TCGGGTTGAA	1
TCGGGTTTCG	1.01
TCGGTAAAAA	1.01
TCGGTCAACG	0.984
TCGGTCTAGG	1.04
TCGGTCTTGG	0.976
TCGGTGCCA	1.02
TCGGTGCTAT	1.01
TCGGTGTCAG	1
TCGGTTTCTT	0.994
TCGTAACGTC	0.937
TCGTAATATG	1.18
TCGTACGCGG	0.968
TCGTAGATTT	0.981
TCGTAGGAAG	0.992
TCGTAGGCGT	1.03
TCGTAGTCAT	0.999
TCGTATAAG	0.96

Sequence	switch fluorescence ratio
TCGTATCTAA	0.99
TCGTCCATGG	1.03
TCGTCGATTT	1.16
TCGTCGCGAT	1.77
TCGTCGTCCC	1.05
TCGTCTTTAC	1.68
TCGTGAATTA	1.01
TCGTGACGGG	1.04
TCGTGAGTGC	1.07
TCGTGATAAT	1.04
TCGTGATCGG	0.979
TCGTGATTTG	0.998
TCGTGCCCGA	0.959
TCGTGCGACT	0.979
TCGTGCGATG	1.02
TCGTGCTCCT	1.01
TCGTGGCATT	0.957
TCGTGTCGCT	0.982
TCGTGTTGGG	0.998
TCGTTAATAT	1.12
TCGTTACAAT	1.04
TCGTTACTG	0.892
TCGTTACTGG	0.972
TCGTTAGTGA	1.01
TCGTTCGTTA	1.01

Sequence	switch fluorescence ratio
TCGTTGAGCG	0.958
TCGTTGCGGG	1
TCGTTGGCTA	1
TCGTTGGCTG	0.961
TCGTTGTAAG	1.03
TCGTTTAACC	0.977
TCGTTTATAG	1.02
TCGTTTGAGA	0.985
TCTAAACATA	1
TCTAAAGAAT	0.982
TCTAAATGCC	1.34
TCTAACAGCG	1.02
TCTAACGTTA	1.08
TCTAACTGGT	0.978
TCTAAGGAAA	1.03
TCTAATAAGA	1.04
TCTAATATCG	0.982
TCTAATGAAC	1.01
TCTACCAAGT	1.3
TCTACCGTTG	1.04
TCTACGAAGT	1.27
TCTACTTATA	0.989
TCTACTTGTG	1.01
TCTAGAGATT	1.06
TCTAGATCTG	1

Sequence	switch fluorescence ratio
TCTAGGCAAC	1.25
TCTAGGCACA	1.12
TCTAGGGATT	1.01
TCTAGGGCAG	0.997
TCTAGGTGTG	1.02
TCTAGTAAGT	0.989
TCTAGTGGGT	0.994
TCTAGTGGTC	1.06
TCTATCTCTT	0.988
TCTATGGTTT	0.987
TCTATTAAA	1.02
TCTATTACAC	1.07
TCTATTGACG	0.858
TCTCAATTAT	1.03
TCTCACCGGG	1.32
TCTCACTTAC	1.75
TCTCAGGAAT	1.44
TCTCATGCGG	1.06
TCTCATGTAA	2.3
TCTCCAGCTG	1.71
TCTCCTGCTT	1.28
TCTCGCCCTT	1.59
TCTCGGTTGT	1.01
TCTCGGTTTC	1.04
TCTCGTAAGA	1.05
